PubChem BioAssay AID1030 (National Center for Advancing Translational Sciences (NCATS), 2008)
The whole screen tested about 220,000 compounds, of which about 16,000 (7.3%) were called active. Inconclusive results, whose numbers are uncertain, are shown with a selection of clear calls. Calls come from the whole dose curve; as a rule, active = well fitted inhibition curve with a large enough effect (not every such curve was filed as active); inconclusive = small, poorly fitted or top-dose-only effect, or another doubt; inactive = no such curve, though single readings can be large or run the other way. Potencies of inconclusive entries are left out as doubtful fits.
Potency is the fitted concentration of half-maximal effect; tags give direction and shape of the fitted curve.
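Throughout, for activity, negative = inhibition: plate controls were no enzyme wells and a reference inhibitor.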

Each compound was assayed against Aldehyde dehydrogenase 1A1 (Homo sapiens) (UniProt P00352) (assay: qHTS Assay for Inhibitors of Aldehyde Dehydrogenase 1 (ALDH1A1)). Settings: Purified ALDH1A1, NADH fluorescence, propionaldehyde substrate; series mostly up to 75.3 µM; activity, negative = inhibition: at the top concentration.
Sequence of UniProt P00352 (P00352 whole entry, looked up): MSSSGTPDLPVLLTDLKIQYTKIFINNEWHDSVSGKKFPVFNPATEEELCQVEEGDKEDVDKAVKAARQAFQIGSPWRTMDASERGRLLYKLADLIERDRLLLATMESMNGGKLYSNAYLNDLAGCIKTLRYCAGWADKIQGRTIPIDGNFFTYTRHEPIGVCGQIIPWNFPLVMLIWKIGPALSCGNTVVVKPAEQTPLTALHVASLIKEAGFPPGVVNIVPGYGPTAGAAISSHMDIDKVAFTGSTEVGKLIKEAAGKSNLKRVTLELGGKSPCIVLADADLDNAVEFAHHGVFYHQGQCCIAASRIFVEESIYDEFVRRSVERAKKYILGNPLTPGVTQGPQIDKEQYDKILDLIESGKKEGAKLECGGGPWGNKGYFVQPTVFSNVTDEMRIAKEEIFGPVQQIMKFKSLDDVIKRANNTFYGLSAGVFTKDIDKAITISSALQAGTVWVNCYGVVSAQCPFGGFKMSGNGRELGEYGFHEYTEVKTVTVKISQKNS
`CC1=C(C#N)C(/C=N/OCc2ccc(Cl)cc2)CC(=O)N1` (stereo not given) was tested, and the Potency was inconclusive [inhibitor, single point].
With `COc1ccc(CC(=O)NNS(=O)(=O)c2ccc(F)cc2)cc1OC` the “activity, negative = inhibition” value was inactive: 2.42%.
For `CCOC(=O)/C(C#N)=C/Nc1ccccc1NS(=O)(=O)c1cccc(C(C)=O)c1`, the Potency was inconclusive [inhibitor, partial curve, poor fit].
With `Cc1ccc(C)c(N2CCN(C(=O)C3CCCN(S(=O)(=O)c4c(C)[nH]c(=O)[nH]c4=O)C3)CC2)c1` (stereo not given) the “activity, negative = inhibition” value was inactive: 4.88%.
With `Cc1cc(C(=O)NN)c(C)o1` the “activity, negative = inhibition” value was inactive: -7.03%.
For `CC1Cc2ccccc2N1C(=O)CCN1C(=O)C2C3C=CC(C3)C2C1=O` (stereo not given), the Potency was inconclusive [inhibitor, full curve].
In the case of `COc1ccc2cc(C(=O)C3CCCN(C(=O)Cc4c(C)noc4C)C3)ccc2c1` (stereo not given), the Potency is reported as inconclusive [inhibitor, partial curve].
With `Cc1ccc(/C=N/Nc2nc3ccccc3s2)o1` the “activity, negative = inhibition” value was inactive: 4.24%.
For `Cc1ccc(S(=O)(=O)N2c3ccccc3NC(=O)CC2C)cc1` (stereo not given), the “activity, negative = inhibition” value was inactive: 5.71%.
For `CC1Cc2nc(SCC(=O)c3ccccc3)n(Cc3ccccc3)c(=O)c2S1` (stereo not given), the Potency was inconclusive [inhibitor, partial curve].
In the case of `Cc1noc(C)c1-c1ccc2ncnc(NCc3ccccc3)c2c1`, the Potency is reported as inconclusive [inhibitor, partial curve, poor fit].
`CCOC(=O)CNc1c(-c2ccccc2)nc2ccc(Cl)cn12` was tested, and the Potency was inconclusive [inhibitor, partial curve].
`CCOC(=O)Cc1csc(-n2sc3ccccc3c2=O)n1` was tested, and the Potency was active: 3.55 µM.
`Cc1ccc2nc(SC(C(=O)c3ccccc3)c3ccccc3)nc(C)c2c1` (stereo not given) was tested, and the Potency was inconclusive [inhibitor, partial curve].
For `O=C(/C=C/c1ccc([N+](=O)[O-])s1)N1CCCC1`, the Potency was inconclusive [inhibitor, partial curve].
With `COc1ccc(C(=O)CCN(C)C)c2ccccc12` the Potency was active: 0.0282 µM.
In the case of `CCN1CCc2c(C#N)c(N3CCOCC3)nc(NCc3ccccc3)c2C1`, the Potency is reported as inconclusive [inhibitor, partial curve].
With `Cc1ccc(N2C(=O)CC(Sc3ccccc3C(=O)O)C2=O)cc1` (stereo not given) the Potency was active: 0.708 µM.
For `COC(=O)c1cc2ccsc2n1CC(=O)Nc1ccc(N(C)C)cc1`, the Potency was inconclusive [inhibitor, single point].
In the case of `Cc1oc(-c2ccc(Cl)cc2)nc1CSCC(=O)NCCCN1CCOCC1`, the Potency is reported as inconclusive [inhibitor, single point].
For `CC(C(=O)OCC(=O)c1cccc([N+](=O)[O-])c1)N1C(=O)C2C3CCC(C3)C2C1=O` (stereo not given), the Potency was inconclusive [inhibitor, single point].
With `COc1cccc(NC2SC(=O)N(c3ccccc3)C2=O)c1` (stereo not given) the Potency was inconclusive [inhibitor, partial curve].
In the case of `CN1c2ccccc2C(C)(C)C12CC(CCl)=NO2` (stereo not given), the Potency is reported as inconclusive [inhibitor, single point].
In the case of `Cc1ccc(NC(=O)CNc2ccc(OC(C)C)cc2)cc1`, the Potency is reported as active: 7.08 µM.
In the case of `CCOC(=O)c1ccc(CC(=O)c2ccc(O)cc2O)o1`, the Potency is reported as inconclusive [inhibitor, single point].
`Cc1cccc(CNc2cc(-c3ccc(N(C)C)cc3)ncn2)c1` was tested, and the Potency was inconclusive [inhibitor, partial curve].
For `COC(=O)c1ccc(OCCOCCOc2cccc3ccc(C)nc23)cc1`, the Potency was inconclusive [inhibitor, single point].
In the case of `O=C(NC(=S)N1CCCCCC1)C1CC1`, the Potency is reported as inconclusive [inhibitor, single point].
With `Cn1nnnc1SCC(=O)NCc1ccco1` the “activity, negative = inhibition” value was inactive: 8.3%.
In the case of `COc1ccc(OC)c(S(=O)(=O)N(C(C)=O)c2ccc3oc(=O)sc3c2)c1`, the Potency is reported as inconclusive [inhibitor, partial curve].
`CC(C)c1[nH]c(=O)c(C#N)c2c1CSC(C)(C)C2` was tested, and the Potency was inconclusive [inhibitor, single point].
In the case of `O=C(NCc1ccc(Cl)cc1)c1ccc(Cl)cc1[N+](=O)[O-]`, the “activity, negative = inhibition” value is reported as inactive: 5.96%.
With `O=C(NNC(=O)C1CC(c2cccs2)=NO1)NC1CCCCC1` (stereo not given) the Potency was inconclusive [inhibitor, single point].
With `CC(C)(C)c1cc(NC(=O)COC(=O)c2ccc3c(=O)n4c(nc3c2)CCC4)n(-c2ccccc2)n1` the Potency was active: 3.98 µM.
With `Cn1c(=O)[nH]c(=O)c2c1nc(SCCN1CCCCC1)n2Cc1ccccc1` the Potency was inconclusive [inhibitor, single point].
`Cc1ccc(C(=O)OCC(=O)NCCN2C(=O)CSC2=O)cc1` was tested, and the “activity, negative = inhibition” value was inactive: -4.08%.
In the case of `CCOC(C)=O`, the Potency is reported as inconclusive [inhibitor, single point].
In the case of `Fc1ccc(F)c(C2=NNC(=NCC3CCCO3)SC2)c1` (stereo not given), the Potency is reported as inconclusive [inhibitor, partial curve].
With `COc1ccc(S(=O)(=O)N2CCCN(CCC(=O)Nc3cccc(C(F)(F)F)c3)CC2)cc1` the Potency was inconclusive [inhibitor, partial curve].
With `Cc1ccc(S(=O)(=O)N2CCN=C2SCc2ccc(Cl)c(Cl)c2)cc1` the Potency was inconclusive [inhibitor, single point].
With `O=C1C(Cc2ccccc2)NC(=S)N1Cc1ccccc1` (stereo not given) the “activity, negative = inhibition” value was inactive: -7.75%.
In the case of `COc1ccccc1-c1cncnc1NCc1cnc(C)cn1`, the Potency is reported as inconclusive [inhibitor, single point].
For `CCC1(C)Cc2c(C#N)c(N)n(-c3ccccc3)c(=O)c2CO1` (stereo not given), the “activity, negative = inhibition” value was inactive: 8.75%.
For `CN(c1ccc(C(=O)Nc2ccc(CC#N)cc2)cc1)S(C)(=O)=O`, the Potency was inconclusive [inhibitor, single point].
With `Cc1cc(C)n(-c2nc(SCC(=O)O)c3c4c(sc3n2)CCCC4)n1` the Potency was inconclusive [inhibitor, partial curve].
`CCOCC(=O)Nc1cccc(NC(C)=O)c1` was tested, and the “activity, negative = inhibition” value was inactive: 5.29%.
For `COc1ccc(CNC(=O)c2ccccc2NS(C)(=O)=O)cc1`, the Potency was inconclusive [inhibitor, single point].
In the case of `COc1ccc(Cl)c2c1[nH]c1nc(SCc3ccccn3)nnc12`, the Potency is reported as inconclusive [inhibitor, partial curve].
`Cc1nn(Cc2c(F)cccc2Cl)c(C)c1NC(=O)C1CC1` was tested, and the “activity, negative = inhibition” value was inactive: 3.8%.
In the case of `COc1ccc2nc(C)c(C(=O)OCCN(C)C)cc2c1`, the Potency is reported as inconclusive [inhibitor, single point].
With `Cc1nn(-c2ccccc2)c(N2CCCC2)c1/C=N/NC(=S)Nc1cc(C(F)(F)F)ccc1Cl` the Potency was inconclusive [inhibitor, single point].
In the case of `O=C(Nc1ccc(N=Nc2ccccc2)c(NC(=O)C2CCCO2)c1)C1CCCO1` (stereo not given), the Potency is reported as inconclusive [inhibitor, partial curve].
`COc1cccc(C2=CC(c3ccc(N(C)C)cc3)n3nnnc3N2)c1` (stereo not given) was tested, and the Potency was inconclusive [inhibitor, single point].
`CCCc1nc2oc3c(NCCOCCO)ncnc3c2c2c1COC(C)(C)C2` was tested, and the Potency was inconclusive [inhibitor, partial curve].
With `CC(C)CC(C(=O)NC1CCCC1)N(Cc1ccc2c(c1)OCO2)C(=O)c1snc(C(N)=O)c1N` (stereo not given) the Potency was inconclusive [inhibitor, single point].
In the case of `O=C1CC(Sc2nnc(-c3ccccc3)o2)C(=O)N1c1ccccc1` (stereo not given), the Potency is reported as active: 1.78 µM.
For `Cc1cc(=O)[nH]c(SCC(=O)Nc2ncc(S(=O)(=O)c3ccc([N+](=O)[O-])cc3)s2)n1`, the Potency was inconclusive [inhibitor, single point].
`CCc1cc2c(N3CCN(C(=O)c4ccco4)CC3)ncnc2s1` was tested, and the Potency was inconclusive [inhibitor, single point].
For `Cc1cnc(CNc2ncnc3ccc(-c4ccoc4)cc23)cn1`, the Potency was inconclusive [inhibitor, partial curve].
`Cc1cccc(C2=NN(c3ccccc3)[C@H](CO)[C@H]2c2ccc(Cl)cc2)c1` was tested, and the Potency was inconclusive [inhibitor, partial curve].
With `CN(NC(=O)c1ccccc1)c1ncc(C(F)(F)F)cc1Cl` the “activity, negative = inhibition” value was inactive: -3.04%.
In the case of `O=S(=O)(c1ccc(-c2csc(Nc3ccc(F)cc3)n2)cc1)N1CCCC1`, the Potency is reported as inconclusive [inhibitor, partial curve].
`O=S1(=O)C[C@@H](O)[C@@H](Nc2ccc(Cl)cc2)C1` was tested, and the Potency was active: 11.2 µM.
With `COc1cccc(CC2(CO)CCCN(Cc3sc(N4CCCC4)nc3Cl)C2)c1` (stereo not given) the Potency was inconclusive [inhibitor, single point].
With `CC(=O)OCC1OC(c2cc(C)cc(C)c2)C=CC1OC(C)=O` (stereo not given) the activity, negative = inhibition was inactive: 6.34% [at 13.5 µM].
`COc1ccccc1NC(=S)NCCc1ccc(S(N)(=O)=O)cc1` was tested, and the Potency was inconclusive [inhibitor, single point].
With `O=C(CC1C(=O)NCCN1Cc1cccc(Oc2ccccc2)c1)NCCc1ccccn1` (stereo not given) the Potency was inconclusive [inhibitor, single point].
`N#CCCn1c(=O)c(-c2ccc(Cl)cc2)nc2cnc(N3CCNCC3)nc21` was tested, and the Potency was inconclusive [inhibitor, partial curve].
For `O=C(COC(=O)CCCSc1nc2ccccc2[nH]1)Nc1ccc(Oc2ccccc2)cc1`, the Potency was inconclusive [inhibitor, single point].
`CCOCC(=O)Nc1cccc(OC)c1` was tested, and the Potency was inconclusive [inhibitor, single point].
